# Test results as given in US20230416360A1 (SIMCERE ZAIMING PHARMACEUTICAL, published 2023).
# B1: HA22 scFv-hFc (Fc fusion)
# chain: EVQLVESGGGLVKPGGSLKLSCAASGFAFSIYDMSWVRQTPEKCLEWVAYISSGGGTTYYPDTVKGRFTISRDNAKNTLYLQMSSLKSEDTAMYYCARHSGYGTHWGVLFAYWGQGTLVTVSAGGGGSGGGGSGGGGSDIQMTQTTSSLSASLGDRVTISCRASQDISNYLNWYQQKPDGTVKLLIYYTSILHSGVPSRFSGSGSGTDYSLTISNLEQEDFATYFCQQGNTLPWTFGCGTKLEIK[human IgG1 Fc with changes cut from this listing]
# B2: S002-NB151-2 VHH-Fc (Fc fusion)
# chain: QVQLVESGGGLVQAGDSLRLSCAASGRTFSPSTMAWFRQAPGKERELVARIGWTYGDTYYVDSAKGRFTISMDNVKNTVYLQMNSLKPEDTAVYYCAALFRGGLSYNFSNRGTQVTVSS[human IgG1 Fc with changes cut from this listing]
# notes: VHH cloned into vector BI3.4-huIgG1 (hinge and human IgG1 Fc), made in HEK293E; also called 5002-NB151-2
# B3: S002-NB151-92 VHH-Fc (Fc fusion)
# chain: QVQLVESGGGLVQSGGSLRLSCAASGFTFSDYTMNWVRQAPGKGLEWVSEISSGGHFKSNADSVKDRFTISRDNAKNTLYLQMNSLKPEDTAVYFCAKCPRPSVYCRDYESTSLYRGQGTQVTVSS[human IgG1 Fc with changes cut from this listing]
# notes: VHH cloned into vector BI3.4-huIgG1 (hinge and human IgG1 Fc), made in HEK293E; also called 5002-NB151-92
# B4: S002-NB150-159n VHH-Fc (Fc fusion)
# chain: QVQLVESGGGLVQAGDSLRLACEASGRTATISTMGWFRQAPGKEREFVGRIDWSAESTYIVDSVKGRFIISRDNAKNAGYLQMNSLKPVDTAVYYCAAIVVRERSYKYWGQGTQVTVSS[human IgG1 Fc with changes cut from this listing]
# notes: VHH cloned into vector BI3.4-huIgG1 (hinge and human IgG1 Fc), made in HEK293E; also called S002-NB150-15911
# B5: S002-NB151-51 VHH-Fc (Fc fusion)
# chain: QVQLVESGGGLVQAGGSLRLSCAASGITSDDYAIGWFRQAPGKEREGVSCMYSSDGSTYYADSVKGRFTISRDNAKNTVYLQMNSLRPEDTAVYHCAAGPWCFVTGVGREEWGQGTQVTVSS[human IgG1 Fc with changes cut from this listing]
# notes: VHH cloned into vector BI3.4-huIgG1 (hinge and human IgG1 Fc), made in HEK293E; also called 5002-NB151-51
# B6: S002-NB151-23 VHH-Fc (Fc fusion)
# chain: QVQLVESGGGLVQAGGSLTVSCTNSGRTLSTSTIAWFRQKPGKDSEFVAAIRWSGGMGWYADSVKGRFTISRDNAENTVSLQMNTLQPEDTAVYFCAVSTVPYYGSIYTRVGDYPYWGQGTQVTVSS[human IgG1 Fc with changes cut from this listing]
# notes: VHH cloned into vector BI3.4-huIgG1 (hinge and human IgG1 Fc), made in HEK293E; also called 5002-NB151-23
# B7: S002-NB151-30 VHH-Fc (Fc fusion)
# chain: QVQLVESGGGLVQAGGSLRLSCAASGRASGSGAMGWFRQAPGQERRFVAGIEWSSGGPVYADSVKGRFTLSRDNAKNTVHLQMNSLKPEDTAVYYCAAAPWVFSSPDDYMYWGQGTQVTVSS[human IgG1 Fc with changes cut from this listing]
# notes: VHH cloned into vector BI3.4-huIgG1 (hinge and human IgG1 Fc), made in HEK293E; also called 5002-NB151-30
# B8: S002-NB151-66 VHH-Fc (Fc fusion)
# chain: QVQLVESGGGLVQAGGSLRLACAASGDTVSIYYMGWFRQAPGKEREFVGALSASGQFTDHADSVKGRFTISRDDAQNTVFLHMNDLKPEDTAVYYCAVQRYGWVYRTDKTMYNYWGQGTQVTVSS[human IgG1 Fc with changes cut from this listing]
# notes: VHH cloned into vector BI3.4-huIgG1 (hinge and human IgG1 Fc), made in HEK293E
# B9: S002-NB151-82 VHH-Fc (Fc fusion)
# chain: EVQVVESGGGLVQAGDSLRLSCTTSGRTFYGDYIAWFRQAPGKEREFVAAIAVRGRGTFYGDSVKGRFTISRDNAENTLSLQMNSLKPEDTAVYYCAADAGSYASRGFPVRETGRYDYWGQGTQVTVSS[human IgG1 Fc with changes cut from this listing]
# notes: VHH cloned into vector BI3.4-huIgG1 (hinge and human IgG1 Fc), made in HEK293E; also called 5002-NB151-82
# B10: S002-NB150-2 VHH-Fc (Fc fusion)
# chain: QVQLVESGGGLVQPGGSLRLSCAASGSWFNIAMGWFRQAPGKEREFVAGIRWSDSKTYYADSVKGRFTISGDNAKNTTYLQMNSLKPEDTAVYYCAAQRYYRGSYNRQTNYDHWGQGTQVTVSS[human IgG1 Fc with changes cut from this listing]
# notes: VHH cloned into vector BI3.4-huIgG1 (hinge and human IgG1 Fc), made in HEK293E; also called 5002-NB150-2
# B11: S002-NB150-5 VHH-Fc (Fc fusion)
# chain: QLQLVESGGGLVQAGGSLRLSCVGSGDRVSIALMGWFRQAPGKEREFVAAISPSGGRITYSDSVKGRFTISRDNAKNTVYLQMNSLKRDDTAVYVCAANFRGYLSSSRGSDYAYWGQGTQVTVSS[human IgG1 Fc with changes cut from this listing]
# notes: VHH cloned into vector BI3.4-huIgG1 (hinge and human IgG1 Fc), made in HEK293E; also called 5002-NB150-5
# B12: S002-NB150-40 VHH-Fc (Fc fusion)
# chain: QVQLVESGGGLVQDGGSLRLSCAASGLTFSFYNMGWFRQAPGKEREFVAAISQSGLSTHYADSMKGRFTISRDNAKNTVYLQMNSLNPVDTAAYYCAAGRRGYLASTTNDYEYWGQGTQVTVSS[human IgG1 Fc with changes cut from this listing]
# notes: VHH cloned into vector BI3.4-huIgG1 (hinge and human IgG1 Fc), made in HEK293E; also called 5002-NB150-40
# B13: S002-NB150-42 VHH-Fc (Fc fusion)
# chain: QVQLVESGGGLVQAGDSLKLSCLASGITFSSYYMSWFRQAPGKEREFVAGVGRSGAPSHHADSVKGRFTISRDNAKSAVYLQMNSLQPEDTAVYFCAAKWMAASTTVADYWGQGTQVTVSS[human IgG1 Fc with changes cut from this listing]
# notes: VHH cloned into vector BI3.4-huIgG1 (hinge and human IgG1 Fc), made in HEK293E; also called 5002-NB150-42
# B14: S002-NB150-57 VHH-Fc (Fc fusion)
# chain: QVQLVESGGGLVQAGDSLRLSCAVTGRAYSRSDMGWFRQAPGKEREIVAVITFGGGTDYADSVKGRFTISSEDTKNTLYLQMNSLQPEDTAVYYCAAGFRGSRWSTAARRKEDDYAFWGQGTQVTVSS[human IgG1 Fc with changes cut from this listing]
# notes: VHH cloned into vector BI3.4-huIgG1 (hinge and human IgG1 Fc), made in HEK293E; also called 5002-NB150-57
# B15: S002-NB151-36 VHH-Fc (Fc fusion)
# chain: QVQLVESGGGLVQAGGSLRLSCAASGLTFSYYGMGWFRQAPGKEREFVAAINWSGTSTYYADSVKDRFTVSRDNAKNTAYLHMNNLKPEDTAVYYCAARKYSSSQAMGLPNDIDYWGQGTQVTVSS[human IgG1 Fc with changes cut from this listing]
# notes: VHH cloned into vector BI3.4-huIgG1 (hinge and human IgG1 Fc), made in HEK293E; also called 5002-NB151-36
# B16: S002-NB151-64 VHH-Fc (Fc fusion)
# chain: QVQLVESGGGLVQPGGSLTLSCAASGFDFSFYTMTWVRQAQGKGLEWVSTISTGGGGSNYADSVKGRFTISRDNAKKTLYLQMTSLKPEDTAVYYCASHRRGYMFVSSRKNEYDYWGRGTQVTVSS[human IgG1 Fc with changes cut from this listing]
# notes: VHH cloned into vector BI3.4-huIgG1 (hinge and human IgG1 Fc), made in HEK293E; also called 5002-NB151-64
# B17: S002-NB151-13 VHH-Fc (Fc fusion)
# chain: QVQLVESGGGLVQAGDSLRLSCAASTRIFRSYVMGWFRQAPGKEREAVASIRWSNDTGTYADSVKGRFTISRDNAKNTVYLQMNSLKPEDTAVYSCAADSPPWGRTWYTGYDYWGQGTQVTVSS[human IgG1 Fc with changes cut from this listing]
# notes: as for B8
# Tests used:
# human CD22-ECD-His [1] = target: T1, human CD22-ECD-His (human, UniProt P20273 20-687); assay: ELISA, coated hCD22-ECD-His, antibody 100 nM
# T1 construct: Made in HEK293E, purified on nickel column; also called hCD22-ECD-His; recombinant human CD22-ECD His; not shown: His tag
# T1 sequence: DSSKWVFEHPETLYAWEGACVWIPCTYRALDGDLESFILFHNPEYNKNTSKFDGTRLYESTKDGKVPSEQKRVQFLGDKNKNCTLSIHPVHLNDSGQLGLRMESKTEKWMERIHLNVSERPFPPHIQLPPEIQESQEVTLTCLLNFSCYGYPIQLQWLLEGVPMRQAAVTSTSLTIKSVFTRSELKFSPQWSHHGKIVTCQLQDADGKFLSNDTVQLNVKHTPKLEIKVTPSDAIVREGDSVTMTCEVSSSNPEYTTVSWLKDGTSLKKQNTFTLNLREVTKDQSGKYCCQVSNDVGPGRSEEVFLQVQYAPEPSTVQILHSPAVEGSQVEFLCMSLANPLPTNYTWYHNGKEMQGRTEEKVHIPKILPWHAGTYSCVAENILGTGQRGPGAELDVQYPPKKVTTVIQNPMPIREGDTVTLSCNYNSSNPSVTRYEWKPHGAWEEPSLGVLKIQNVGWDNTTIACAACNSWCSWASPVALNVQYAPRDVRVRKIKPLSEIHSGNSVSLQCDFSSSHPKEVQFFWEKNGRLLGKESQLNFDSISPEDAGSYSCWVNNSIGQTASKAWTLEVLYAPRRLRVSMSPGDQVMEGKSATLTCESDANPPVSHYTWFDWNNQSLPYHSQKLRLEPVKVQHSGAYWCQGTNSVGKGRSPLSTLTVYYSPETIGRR
# Procedure: (§1) The plate was sealed with plastic film and incubated overnight at 4° C., the plate was washed 2 times with PBS the next day, and then a blocking solution [PBS+2% (w/w) BSA] was added for blocking at room temperature for 2 hours. […] After incubation at 37° C. for 2 hours, the plate was washed 3 times with PBS. HRP (horseradish peroxidase)-labeled secondary antibody (purchased from Sigma, catalog number: A0170) was added, and incubated at 37° C. for 2 hours, and the plate was washed 5 times with PBS. TMB substrate was added at 50 μl/well, and incubated at room temperature for 30 minutes, then a stop solution (1.0 N HCl) was added at 50 μl/well.
# human CD22-ECD-His [2] = target: T1, human CD22-ECD-His; assay: ELISA, coated hCD22-ECD-His, antibody 0.10 nM
# Procedure: as §1
# murine CD22-ECD-His = target: T2, murine CD22-ECD-His (mouse, UniProt P35329 22-708); assay: ELISA, coated mouse CD22, antibody 0.10 nM
# T2 construct: extracellular domain; Bought; also called mouse CD22; murine CD22 protein
# T2 sequence (looked up): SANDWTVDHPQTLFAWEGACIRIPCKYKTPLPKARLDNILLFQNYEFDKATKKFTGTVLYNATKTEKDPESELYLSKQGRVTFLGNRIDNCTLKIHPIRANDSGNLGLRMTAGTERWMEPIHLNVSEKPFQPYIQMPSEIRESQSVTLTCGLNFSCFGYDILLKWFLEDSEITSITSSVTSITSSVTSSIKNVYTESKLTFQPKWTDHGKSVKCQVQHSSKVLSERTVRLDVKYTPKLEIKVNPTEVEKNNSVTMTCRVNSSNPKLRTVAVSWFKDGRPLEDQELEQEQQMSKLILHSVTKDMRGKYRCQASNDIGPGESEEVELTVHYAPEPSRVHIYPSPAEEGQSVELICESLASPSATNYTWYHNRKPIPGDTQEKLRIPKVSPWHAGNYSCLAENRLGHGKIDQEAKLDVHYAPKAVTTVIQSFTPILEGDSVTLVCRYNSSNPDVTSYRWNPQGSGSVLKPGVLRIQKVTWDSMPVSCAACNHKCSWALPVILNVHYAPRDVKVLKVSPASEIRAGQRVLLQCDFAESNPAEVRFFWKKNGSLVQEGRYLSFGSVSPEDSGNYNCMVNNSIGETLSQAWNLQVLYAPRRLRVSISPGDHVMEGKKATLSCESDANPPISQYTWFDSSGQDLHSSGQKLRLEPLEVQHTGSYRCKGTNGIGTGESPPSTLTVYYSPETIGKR
# Procedure: as §1
Binder,OD450 (human CD22-ECD-His [1]),OD450 (human CD22-ECD-His [2]),OD450 (murine CD22-ECD-His)
B1,2.01,1.5,–
B2,1.93,1.82,0.05
B3,1.61,1.86,0.07
B4,3.2,2.22,0.05
B5,1.68,1.54,2.33
B6,1.33,1.24,0.06
B7,1.8,1.35,0.06
B8,1.38,1.29,0.06
B9,1.54,1.3,0.06
B10,2.29,1.83,0.05
B11,2.56,1.91,0.06
B12,2.26,1.65,0.05
B13,2.02,1.87,0.05
B14,2.08,1.9,0.05
B15,2.58,1.78,0.05
B16,2.18,1.95,0.11
B17,2.12,1.65,–
